According to US11207320B2, “Compositions and methods for cancer expressing PDE3A or SLFN12” (The Broad Institute, Inc., priority 2015, dated 2021):
This continues a long series; more values of the same kind are listed elsewhere.

System: 766 cancer cell lines
Test: Large-scale cell-line viability measurements (766 cancer cell lines, 72 h, AUC)
Type: cell-based, human
Settings: 72 hours
Procedure: Cell lines were treated for 72 hours with concentrations ranging from 66.4 μM-2 nM in 2-fold step dilutions.
To characterize cellular sensitivity to DNMDP further, 766 genomically characterized cancer cell lines were screened for DMNDP sensitivity at concentrations ranging from 66.4 μM to 2 nM in 2-fold dilution steps for 72 hours. From these cell lines, 22 cell lines were categorized as sensitive with a robust Z-score lower than −4, which represented multiple lineages including multiple melanoma cell lines, amongst others (Table 1).
The sensitivity of […] cancer cell lines (CCLs) was measured drawn from 23 different lineages to DNMDP. Each cell line was plated in its preferred media in white opaque 1536-plates at a density of 500 cells/well. After incubating overnight, DNMDP was added by acoustic transfer at 16 concentrations ranging from 66.4 μM-2 nM in 2-fold steps in duplicate (Labcyte Echo 555, Labcyte Inc., Sunnyvale, Calif.). After 72 hours treatment, cellular ATP levels were measured as a surrogate for viability (CELLTITERGLO®, Promega Corporation, Madison, Wis.) according to manufacturer's protocols using a ViewLux Microplate Imager (PerkinElmer, Waltham, Mass.) and normalized to background (media-only) and vehicle (DMSO)-treated control wells.
Concentration response curves were fit using nonlinear fits to 2- or 3-parameter sigmoid functions through all 16 concentrations with the low-concentration asymptote set to the DMSO-normalized value, and an optimal 8-point dose curve spanning the range of compound-sensitivity was identified. The area under the 8-point dose curve (AUC) was computed by numeric integration as a metric for sensitivity for further analysis. Similar sensitivity measurements have been obtained for a collection of 480 other compounds, enabling analyses that identify cell lines responding uniquely to DNMDP (see Broad Institute Cancer Therapeutics Response Portal, a dataset to identify comprehensively relationships between genetic and lineage features of human cancer cell lines and small-molecule sensitivities for complete list of compounds).

[1] = SCC9 (UPPER AERODIGESTIVE TRACT)
[2] = SEM (HAEMATOPOIETIC AND LYMPHOID TISSUE)
[3] = SKMM2 (HAEMATOPOIETIC AND LYMPHOID TISSUE)
[4] = SNU201 (CENTRAL NERVOUS SYSTEM)
[5] = SUDHL1 (HAEMATOPOIETIC AND LYMPHOID TISSUE)
[6] = SUPM2 (HAEMATOPOIETIC AND LYMPHOID TISSUE)
[7] = SW1783 (CENTRAL NERVOUS SYSTEM)
[8] = TALL1 (HAEMATOPOIETIC AND LYMPHOID TISSUE)
[9] = THP1 (HAEMATOPOIETIC AND LYMPHOID TISSUE)
[10] = X8MGBA (CENTRAL NERVOUS SYSTEM)
[11] = X697 (HAEMATOPOIETIC AND LYMPHOID TISSUE)

CCN(CC)c1ccc(C2=NNC(=O)CC2C)cc1[N+](=O)[O-] (centres unmarked) [DNMDP, 6-(4-(diethylamino)-3-nitrophenyl)-5-methyl-4,5-dihydropyridazin-3(2H)-one]
Robust Z-score (RT4 (URINARY TRACT)): −0.3783 | DNMDP AUC (SCABER (URINARY TRACT)): 6.322 | Robust Z-score (SCABER (URINARY TRACT)): −0.3282 | DNMDP AUC [1]: 6.2351 | Robust Z-score [1]: −0.4194 | DNMDP AUC [2]: 4.7433 | Robust Z-score [2]: −1.985 | DNMDP AUC (SF295 (CENTRAL NERVOUS SYSTEM)): 6.4581 | Robust Z-score (SF295 (CENTRAL NERVOUS SYSTEM)): −0.1853 | DNMDP AUC (SH4 (SKIN)): 4.3672 | Robust Z-score (SH4 (SKIN)): −2.38 | DNMDP AUC (SHP77 (LUNG)): 6.5008 | Robust Z-score (SHP77 (LUNG)): −0.1405 | DNMDP AUC (SKLMS1 (SOFT TISSUE)): 6.5254 | Robust Z-score (SKLMS1 (SOFT TISSUE)): −0.1147 | DNMDP AUC [3]: 6.2396 | Robust Z-score [3]: −0.4147 | DNMDP AUC (SKOV3 (OVARY)): 6.2773 | Robust Z-score (SKOV3 (OVARY)): −0.3751 | DNMDP AUC (SKUT1 (SOFT TISSUE)): 6.3987 | Robust Z-score (SKUT1 (SOFT TISSUE)): −0.2477 | DNMDP AUC (SNU5 (STOMACH)): 5.5498 | Robust Z-score (SNU5 (STOMACH)): −1.139 | DNMDP AUC (SNU8 (OVARY)): 6.3089 | Robust Z-score (SNU8 (OVARY)): −0.3419 | DNMDP AUC [4]: 6.2618 | Robust Z-score [4]: −0.3914 | DNMDP AUC (SNU387 (LIVER)): 4.9639 | Robust Z-score (SNU387 (LIVER)): −1.754 | DNMDP AUC (SNU398 (LIVER)): 6.4206 | Robust Z-score (SNU398 (LIVER)): −0.2247 | DNMDP AUC (SNU449 (LIVER)): 4.752 | Robust Z-score (SNU449 (LIVER)): −1.976 | DNMDP AUC (SNU478 (BILIARY TRACT)): 6.3432 | Robust Z-score (SNU478 (BILIARY TRACT)): −0.3059 | DNMDP AUC (SNU503 (LARGE INTESTINE)): 4.5692 | Robust Z-score (SNU503 (LARGE INTESTINE)): −2.168 | DNMDP AUC (SNU685 (ENDOMETRIUM)): 5.206 | Robust Z-score (SNU685 (ENDOMETRIUM)): −1.5 | DNMDP AUC (SNU761 (LIVER)): 6.3819 | Robust Z-score (SNU761 (LIVER)): −0.2653 | DNMDP AUC [5]: 6.3444 | Robust Z-score [5]: −0.3047 | DNMDP AUC [6]: 6.3314 | Robust Z-score [6]: −0.3183 | DNMDP AUC (SW579 (THYROID)): 4.697 | Robust Z-score (SW579 (THYROID)): −2.034 | DNMDP AUC (SW837 (LARGE INTESTINE)): 6.5072 | Robust Z-score (SW837 (LARGE INTESTINE)): −0.1338 | DNMDP AUC (SW1116 (LARGE INTESTINE)): 6.5032 | Robust Z-score (SW1116 (LARGE INTESTINE)): −0.138 | DNMDP AUC [7]: 5.1161 | Robust Z-score [7]: −1.594 | DNMDP AUC (T98G (CENTRAL NERVOUS SYSTEM)): 6.2412 | Robust Z-score (T98G (CENTRAL NERVOUS SYSTEM)): −0.413 | DNMDP AUC [8]: 6.2742 | Robust Z-score [8]: −0.3783 | DNMDP AUC [9]: 6.4214 | Robust Z-score [9]: −0.2238 | DNMDP AUC (TOV21G (OVARY)): 6.4695 | Robust Z-score (TOV21G (OVARY)): −0.1733 | DNMDP AUC (TUHR10TKB (KIDNEY)): 6.3302 | Robust Z-score (TUHR10TKB (KIDNEY)): −0.3196 | DNMDP AUC (UACC62 (SKIN)): 3.9116 | Robust Z-score (UACC62 (SKIN)): −2.858 | DNMDP AUC (UACC257 (SKIN)): 6.3508 | Robust Z-score (UACC257 (SKIN)): −0.2979 | DNMDP AUC (UMUC1 (URINARY TRACT)): 4.9933 | Robust Z-score (UMUC1 (URINARY TRACT)): −1.723 | DNMDP AUC (VCAP (PROSTATE)): 5.5863 | Robust Z-score (VCAP (PROSTATE)): −1.1 | DNMDP AUC (VMCUB1 (URINARY TRACT)): 6.4199 | Robust Z-score (VMCUB1 (URINARY TRACT)): −0.2254 | DNMDP AUC (WM793 (SKIN)): 6.4939 | Robust Z-score (WM793 (SKIN)): −0.1477 | DNMDP AUC (WM1799 (SKIN)): 6.4744 | Robust Z-score (WM1799 (SKIN)): −0.1682 | DNMDP AUC [10]: 6.5012 | Robust Z-score [10]: −0.1401 | DNMDP AUC (X647V (URINARY TRACT)): 6.5257 | Robust Z-score (X647V (URINARY TRACT)): −0.1144 | DNMDP AUC [11]: 6.4674 | Robust Z-score [11]: −0.1756
